Measurements published in the supplement of paper PMC7826260.
The other results are listed elsewhere or left out. The data describe in vitro nicking of single-stranded DNA by Rep domains for 1 h at 37 °C with 3 µM enzyme; only the middle of the 90-letter strands is printed. The score is log2 (uncut reads / reads without enzyme); the lower, the more was cut; hits are not called. Reads are scaled to the total, so uncut sequences can rise above 0 when many others are cut.

Tests used:
Assay in all cases: uncleaved DNA left, log2 of reads against the no-enzyme library (log2 ratio); higher = less cleavage (more negative = more Rep cleavage of the k-mer); sequences stand for … in CTCGTCCG…ACCGGAGA
[1] = test system: T1, Rep nickase domain of Muscovy duck circovirus
T1 sequence (residues 1-111 of Rep, tag left off): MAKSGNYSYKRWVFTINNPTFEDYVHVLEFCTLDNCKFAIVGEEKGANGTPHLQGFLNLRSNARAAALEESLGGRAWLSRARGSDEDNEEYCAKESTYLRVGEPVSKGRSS
Description: (§1)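 A pool of 90-nt single-stranded DNAs with seven random bases just before the constant AC of the nick site (name = the seven bases) was cut by 3 µM recombinant His6-SUMO-tagged Rep nickase domain (300 nM DNA, 50 mM HEPES pH 8.0, 50 mM NaCl, 1 mM MnCl2, 1 h, 37 °C, three replicates). Uncut DNA was amplified and sequenced.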

[2] = test system: T2, Rep nickase domain of banana bunchy top virus
T2 sequence (residues 1-94 of Rep, tag left off): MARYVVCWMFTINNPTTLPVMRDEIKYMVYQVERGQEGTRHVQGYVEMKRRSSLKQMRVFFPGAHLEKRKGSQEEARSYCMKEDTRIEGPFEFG
Description: as §1

[3] = test system: T3, Rep nickase domain of cabbage leaf curl virus
T3 sequence (residues 1-116 of Rep, tag left off): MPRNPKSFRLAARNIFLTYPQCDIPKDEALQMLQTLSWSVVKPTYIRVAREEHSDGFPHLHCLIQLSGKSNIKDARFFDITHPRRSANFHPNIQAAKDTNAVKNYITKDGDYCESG
Description: as §1

[4] = test system: T4, Rep nickase domain of chickpea chlorotic dwarf virus
T4 sequence (residues 1-124 of Rep, tag left off): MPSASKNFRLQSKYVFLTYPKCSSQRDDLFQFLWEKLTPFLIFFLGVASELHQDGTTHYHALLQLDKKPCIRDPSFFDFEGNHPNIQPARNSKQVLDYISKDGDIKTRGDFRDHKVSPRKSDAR
Description: as §1

[5] = test system: T5, Rep nickase domain of faba bean necrotic yellows virus
T5 sequence (residues 1-98 of Rep, tag left off): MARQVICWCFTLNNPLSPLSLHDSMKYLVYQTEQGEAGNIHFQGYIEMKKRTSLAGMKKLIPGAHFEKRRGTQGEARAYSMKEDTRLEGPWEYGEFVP
Description: as §1

[6] = test system: T6, Rep nickase domain of maize striate mosaic virus
T6 sequence (residues 1-117 of Rep, tag left off): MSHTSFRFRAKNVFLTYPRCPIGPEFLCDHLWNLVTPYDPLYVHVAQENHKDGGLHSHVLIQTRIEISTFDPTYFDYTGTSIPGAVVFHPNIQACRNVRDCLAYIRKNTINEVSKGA
Description: as §1

[7] = test system: T7, Rep nickase domain of porcine circovirus 2
T7 sequence (residues 2-116 of Rep, tag left off): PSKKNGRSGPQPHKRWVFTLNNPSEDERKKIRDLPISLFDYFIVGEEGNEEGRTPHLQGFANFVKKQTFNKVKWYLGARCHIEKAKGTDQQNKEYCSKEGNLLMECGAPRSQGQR
Description: as §1

[8] = test system: T8, Rep nickase domain of tomato golden mosaic virus
T8 sequence (residues 1-124 of Rep, tag left off): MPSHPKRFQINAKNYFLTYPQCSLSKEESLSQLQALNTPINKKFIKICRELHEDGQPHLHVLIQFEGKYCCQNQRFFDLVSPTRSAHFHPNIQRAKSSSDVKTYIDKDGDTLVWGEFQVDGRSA
Description: as §1

[9] = test system: T9, Rep nickase domain of tomato yellow leaf curl virus
T9 sequence (residues 1-136 of Rep, tag left off): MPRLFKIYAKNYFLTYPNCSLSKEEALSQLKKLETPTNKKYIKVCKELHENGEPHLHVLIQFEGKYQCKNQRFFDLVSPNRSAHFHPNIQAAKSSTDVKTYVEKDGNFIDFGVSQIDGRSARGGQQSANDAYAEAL
Description: as §1

[10] = test system: T10, Rep nickase domain of wheat dwarf virus
T10 sequence (residues 1-137 of Rep, tag left off): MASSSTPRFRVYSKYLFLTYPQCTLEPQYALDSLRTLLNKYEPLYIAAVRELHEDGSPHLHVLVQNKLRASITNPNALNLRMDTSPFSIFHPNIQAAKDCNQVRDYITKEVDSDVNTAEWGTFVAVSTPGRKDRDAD
Description: as §1

Sequence	uncleaved DNA left (log2) [1]	uncleaved DNA left (log2) [2]	uncleaved DNA left (log2) [3]	uncleaved DNA left (log2) [4]	uncleaved DNA left (log2) [5]	uncleaved DNA left (log2) [6]	uncleaved DNA left (log2) [7]	uncleaved DNA left (log2) [8]	uncleaved DNA left (log2) [9]	uncleaved DNA left (log2) [10]
TAACGTG	-0.0157	-0.0344	-0.732	-1.57	-0.00224	-1.18	0.112	-0.0433	-0.0274	-0.228
GCAAAGT	0.0641	0.00622	-0.0215	-0.0306	0.0183	-0.671	0.0347	0.0136	-0.105	0.0453
GATGAAA	-0.07	0.0851	0.142	0.768	-0.112	1.27	0.0608	-0.0462	0.0301	0.0122
GTAGCTT	-0.109	0.0679	0.35	0.641	-0.0344	1.62	0.0379	0.0525	0.0682	0.125
GGTCTAA	0.0662	0.101	0.395	1.13	-0.00626	1.77	0.116	0.0635	0.0645	0.19
GGACAAT	-0.00553	-0.0797	0.794	1.96	-0.0562	2.19	0.0615	-0.0759	0.0251	0.198
GATTGGG	0.095	0.049	-0.527	-0.228	0.12	-0.756	0.212	0.0935	0.205	-0.0287
ATATTGA	-0.0273	-0.0109	-0.422	-0.605	-0.0429	-1.22	0.112	-0.0304	-0.0337	-0.116
CAAGAAG	0.0248	-0.000409	-0.617	-0.333	0.26	-0.914	0.269	0.0628	0.0313	-0.0372
TTGAGCC	-0.0484	0.0523	-0.136	-0.257	-0.113	-1.05	-0.206	-0.122	-0.0246	-0.0836
AAGCGTG	0.0861	0.0569	0.0445	0.495	0.0537	0.447	0.171	0.105	0.0171	0.11
CTGACAT	0.0126	0.0102	0.535	1.46	0.128	1.52	0.178	0.0782	0.0499	0.203
GGTTATA	0.116	0.0913	0.392	0.932	0.0346	1.83	0.0664	0.12	0.0373	0.184
AAATTCA	-0.502	0.00938	-1.4	-2.48	0.0109	-1.08	-1.47	-0.161	0.022	-0.369
CGGTCTG	0.103	0.033	0.0927	0.635	-0.116	1.71	0.0944	0.0069	0.126	0.0774
